Assay results from the antibiotic and cytotoxicity screens of Wong et al. (2023).
The list shows a part of the results.

What was measured:
[1] = test system: HSkMC (human skeletal muscle cells); test: cytotoxicity call (relative viability < 0.9); conditions: 10 µM
[2] = test system: HepG2; test: cytotoxicity call (relative viability < 0.9); conditions: 10 µM
[3] = test system: S. aureus RN4220; test: growth inhibition call (relative growth <= 0.2); conditions: 50 µM

SMILES | cytotoxicity call [1] | cytotoxicity call [2] | growth inhibition call [3]
COc1ccc(cc1)CN1C[C@]2(CN(C2)C(=O)Cc2ccncc2)c2c([nH]c3cc(ccc23)OC)[C@H]1CO | inactive | inactive | inactive
C[C@@H]1CCCCO[C@@H](CN(C)C(=O)c2ccccc2)[C@H](C)CN([C@H](C)CO)C(=O)c2cc(NC(=O)Nc3cccc4ccccc34)ccc2O1 | inactive | inactive | inactive
C[C@@H]1CN([C@@H](C)CO)C(=O)c2cc(NS(C)(=O)=O)ccc2O[C@@H](C)CCCCO[C@@H]1CN(C)S(=O)(=O)c1ccccc1 | inactive | inactive | inactive
NC(C(=O)O)C(O)c1ccc(O)c(O)c1 (stereo not given) | inactive | active | inactive
CC#CC1(O)CCC2C3CCC4=CC(=O)CCC4=C3C(c3ccc(N(C)C)cc3)CC21C (stereo not given) | inactive | inactive | inactive
NCc1cn(-c2ccccc2)nc1C12CC3CC(CC(C3)C1)C2 | active | active | active
Cc1c(Br)c(=O)n(C)c(=O)n1C | inactive | inactive | inactive
C[C@H]1CN([C@@H](C)CO)S(=O)(=O)c2ccc(-c3cccnc3)cc2O[C@@H]1CN(C)CC1CCOCC1 | inactive | inactive | inactive
Cc1noc(C)c1NC(=O)N(C)C[C@@H]1Oc2ncc(Br)cc2C(=O)N([C@H](C)CO)C[C@@H]1C | inactive | inactive | inactive
C[C@H]1CN([C@@H](C)CO)C(=O)Cc2cc(NS(C)(=O)=O)ccc2O[C@@H]1CN(C)C(=O)Nc1ccc(F)cc1 | inactive | inactive | inactive
COc1ccc(S(=O)(=O)Nc2ccc3c(c2)C(=O)N([C@H](C)CO)C[C@H](C)[C@@H](CN(C)CC2CCCCC2)OCCCC[C@H](C)O3)cc1 | inactive | inactive | inactive
C[C@H](CO)N1C[C@H](C)[C@@H](CN(C)S(=O)(=O)c2ccc(F)cc2)Oc2c(NC(=O)Nc3ccc(C(F)(F)F)cc3)cccc2C1=O | inactive | inactive | inactive
COc1ccc(S(=O)(=O)Nc2ccc3c(c2)C(=O)N([C@H](C)CO)C[C@@H](C)[C@@H](CN(C)S(C)(=O)=O)OCCCC[C@@H](C)O3)cc1 | inactive | inactive | inactive
Cc1noc(C)c1NC(=O)Nc1ccc2c(c1)C(=O)N([C@@H](C)CO)C[C@H](C)[C@@H](CN(C)C(=O)Nc1cccc3ccccc13)O2 | inactive | inactive | inactive
C[C@@H]1CCCCO[C@@H](CN(C)C(=O)Nc2cccc3ccccc23)[C@H](C)CN([C@@H](C)CO)C(=O)c2cc(NC(=O)Nc3ccc(C(F)(F)F)cc3)ccc2O1 | inactive | inactive | inactive
C[C@H]1CN([C@@H](C)CO)C(=O)c2cccc(NS(=O)(=O)c3cn(C)cn3)c2O[C@H]1CN(C)C(=O)Nc1ccc(F)cc1 | inactive | inactive | inactive
Cc1ccc(S(=O)(=O)Nc2ccc3c(c2)CC(=O)N([C@@H](C)CO)C[C@@H](C)[C@H](CN(C)S(=O)(=O)c2cccs2)O3)cc1 | inactive | inactive | inactive
C[C@@H]1CCCCO[C@H](CN(C)C(=O)Nc2cccc3ccccc23)[C@@H](C)CN([C@H](C)CO)C(=O)c2cc(NC(=O)Nc3ccc(F)cc3)ccc2O1 | inactive | inactive | inactive
C[C@@H]1CN([C@@H](C)CO)C(=O)c2cc(NS(=O)(=O)c3ccc(Cl)cc3)ccc2O[C@@H](C)CCCCO[C@@H]1CN(C)C(=O)Nc1ccc(C(F)(F)F)cc1 | inactive | inactive | inactive
C[C@@H]1CN([C@@H](C)CO)C(=O)Cc2cc(NC(=O)CCN3CCOCC3)ccc2O[C@H]1CN(C)C(=O)NC1CCCCC1 | inactive | inactive | inactive
C[C@H]1CN([C@@H](C)CO)C(=O)c2cc(NC(=O)Nc3ccc(C(F)(F)F)cc3)ccc2O[C@@H]1CN(C)Cc1ccc(C(=O)Nc2ccccc2N)cc1 | inactive | inactive | inactive
C[C@H]1CN([C@@H](C)CO)C(=O)c2cc(NC(=O)Nc3ccc(F)cc3)ccc2O[C@H]1CN(C)C(=O)Nc1ccc(C(F)(F)F)cc1 | inactive | inactive | inactive
C[C@@H]1CCCCO[C@@H](CN(C)C(=O)Nc2ccc(F)cc2)[C@@H](C)CN([C@H](C)CO)C(=O)c2cc(NC(=O)CCCN(C)C)ccc2O1 | inactive | inactive | inactive
Cc1ccc(OCc2ccc(Cl)cc2)c(C(C)(C)C)c1 | inactive | inactive | inactive
COc1ccc2c3c([nH]c2c1)[C@H](CO)N(CC1CCCCC1)C[C@]13CCN(CC1)C(=O)NC1CCCC1 | active | inactive | inactive
O=C1CO[C@H]2CN(S(=O)(=O)c3ccccc3)C[C@@H]2N1 | inactive | inactive | inactive
C[C@@H]1CCCCO[C@@H](CN(C)S(C)(=O)=O)[C@H](C)CN([C@@H](C)CO)C(=O)c2cc(NS(=O)(=O)c3cccs3)ccc2O1 | inactive | inactive | inactive
CCCc1cc(=O)oc2cc3occ(-c4ccccc4)c3cc12 | inactive | inactive | inactive

SMILES | cytotoxicity call [1] | cytotoxicity call [2] | growth inhibition call [3]
C[C@H](CO)N1C[C@H](C)[C@@H](CN(C)S(=O)(=O)c2ccc(Cl)cc2)Oc2ccc(NC(=O)c3ccncc3)cc2CC1=O | inactive | inactive | inactive
CO[C@H]1CN(C)C(=O)c2ccc(NS(=O)(=O)c3ccccc3)cc2OC[C@H](C)N(C(=O)NC(C)C)C[C@H]1C | inactive | inactive | inactive
C[C@@H](NC=C1C(=O)OC(C)(C)OC1=O)C(=O)O | inactive | inactive | inactive
CCOC(=O)[C@H]1C/C=C/C[C@H](C(=O)OCC)C(=O)O[C@H]2[C@@H](OC)O[C@H](CO)[C@@H](OC(=O)c3c(OC)cccc3OC)[C@@H]2OC1=O | inactive | inactive | inactive
O=C(C[C@@H]1C[C@@H]2c3cc(NS(=O)(=O)c4ccc(F)cc4)ccc3O[C@@H]2[C@H](CO)O1)NCc1cccnc1 | inactive | inactive | inactive
C[C@H](CO)N1C[C@H](C)[C@@H](CN(C)C(=O)Nc2cccc3ccccc23)Oc2ccc(NS(=O)(=O)c3ccc(F)cc3)cc2CC1=O | inactive | inactive | inactive
C[C@H](CO)N1C[C@H](C)[C@@H](CN(C)C(=O)Nc2ccc3c(c2)OCO3)OCCCC[C@H](C)Oc2ccc(NC(=O)Nc3ccc4c(c3)OCO4)cc2C1=O | inactive | inactive | inactive
C[C@H](CO)N1C[C@H](C)[C@H](CN(C)C(=O)Nc2ccc(F)cc2)Oc2c(NS(C)(=O)=O)cccc2C1=O | inactive | inactive | inactive
C[C@@H]1CN([C@@H](C)CO)C(=O)Cc2cc(NC(=O)CCC(F)(F)F)ccc2O[C@H]1CN(C)C(=O)Nc1ccc(C(F)(F)F)cc1 | inactive | inactive | inactive
Cc1ccc(S(=O)(=O)Nc2cccc3c2O[C@H](CN(C)CC2CC2)[C@@H](C)CN([C@@H](C)CO)C3=O)cc1 | inactive | inactive | inactive
CCCNC(=O)N1C[C@H](O)COC[C@@H]2O[C@H](CC(=O)NCCCN3CCOCC3)CC[C@H]21 | inactive | inactive | inactive
C[C@@H]1CCCCO[C@H](CN(C)C)[C@@H](C)CN([C@H](C)CO)C(=O)c2cc(NS(=O)(=O)c3cn(C)cn3)ccc2O1 | inactive | inactive | inactive
Cc1ccc(S(=O)(=O)N(C)C[C@@H]2Oc3c(NS(=O)(=O)c4c(C)noc4C)cccc3C(=O)N([C@@H](C)CO)C[C@@H]2C)cc1 | inactive | inactive | inactive
O=C(C[C@H]1CC[C@@H](NS(=O)(=O)c2ccc(F)cc2)[C@H](CO)O1)NCc1ccc(Cl)c(Cl)c1 | inactive | inactive | inactive
C[C@@H]1CN([C@H](C)CO)C(=O)c2cc(NC(=O)c3ccccc3)ccc2O[C@@H](C)CCCCO[C@H]1CN(C)Cc1ccncc1 | inactive | inactive | inactive
Cc1ccc(S(=O)(=O)N(C)C[C@H]2OCCCC[C@@H](C)Oc3ccc(NC(=O)Nc4ccc(F)cc4)cc3C(=O)N([C@H](C)CO)C[C@H]2C)cc1 | inactive | inactive | inactive
C[C@@H]1CN([C@H](C)CO)C(=O)Cc2cc(NC(=O)C3CCCCC3)ccc2O[C@H]1CN(C)Cc1ccc(-c2ccccc2)cc1 | inactive | inactive | inactive
COC(=O)[C@H](Cc1ccc(-n2cc(C(=O)NO)nn2)cc1)N1C[C@](C)(OC)O[C@@H](Cc2ccccc2)[C@H]1/C=C/C1CC1 | inactive | inactive | inactive
CN(C)CCN1CCN(C)C2(CCN(C(=O)[C@H]3CCCO3)CC2)C1=O | inactive | inactive | inactive
CO[C@@H]1CN(C)C(=O)c2ccc(NC(=O)CN(C)C)cc2OC[C@@H](C)N(C(=O)c2ccncc2)C[C@H]1C | inactive | inactive | inactive
C[C@H](CO)N1C[C@H](C)[C@H](CN(C)S(=O)(=O)c2ccc(Cl)cc2)Oc2ccc(NC(=O)CCN3CCOCC3)cc2CC1=O | inactive | inactive | inactive
C[C@H]1CN([C@@H](C)CO)C(=O)c2cccc(NC(=O)NC3CCCCC3)c2O[C@@H]1CN(C)S(=O)(=O)c1cn(C)cn1 | inactive | inactive | inactive
O=C(Cn1c(CO)c[nH]c1=S)NC1CC1 | inactive | inactive | inactive
OC[C@H]1O[C@@H](n2cnc3c(N[C@H]4CCC[C@@H]4O)ncnc32)[C@H](O)[C@@H]1O | inactive | inactive | inactive
CCC(=O)Nc1ccc2c(c1)C(=O)N(C)C[C@H](OC)[C@H](C)CN(C(=O)CN1CCOCC1)[C@H](C)CO2 | inactive | inactive | inactive
COC(=O)CCc1c(C)[nH]c(=S)[nH]c1=O | inactive | inactive | inactive
C[C@@H]1CCCCO[C@H](CN(C)Cc2ccncc2)[C@H](C)CN([C@H](C)CO)C(=O)c2cc(NS(=O)(=O)c3ccc(Cl)cc3)ccc2O1 | inactive | inactive | inactive
